{
  "source": "the supplement of paper PMC10681739",
  "note": "Whole data set: some 2,700 sequences, median “arbitrary fluorescence units” near 4,100, cut for the highest 2% near 54,000. Some of the results follow.",
  "data": [
    {"target": "T1, ETS1 (UniProt P14921)", "T1 sequence": "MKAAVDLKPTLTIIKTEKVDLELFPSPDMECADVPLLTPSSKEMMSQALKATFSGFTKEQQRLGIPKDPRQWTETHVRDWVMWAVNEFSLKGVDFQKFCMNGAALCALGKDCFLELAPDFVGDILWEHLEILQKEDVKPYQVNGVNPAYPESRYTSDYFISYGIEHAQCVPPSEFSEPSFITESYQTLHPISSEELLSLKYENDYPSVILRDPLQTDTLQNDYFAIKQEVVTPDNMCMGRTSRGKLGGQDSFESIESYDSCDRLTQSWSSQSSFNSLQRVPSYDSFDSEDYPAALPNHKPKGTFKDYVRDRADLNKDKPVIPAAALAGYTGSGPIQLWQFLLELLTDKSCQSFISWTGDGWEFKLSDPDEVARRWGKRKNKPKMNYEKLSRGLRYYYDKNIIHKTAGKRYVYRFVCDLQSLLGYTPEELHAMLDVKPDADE", "assay": "ETS1 binding intensity (PBM fluorescence) (arbitrary fluorescence units); higher = stronger binding", "conditions": "ETS1 concentration 10 nM", "protocol": "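gcPBM on wild-type 36-bp genomic probes with two neighbouring ETS1 sites (4-24 bp apart). Recombinant human ETS1 (10 nM) was detected with anti-ETS1 antibody fluorescence. Values are medians over 3 replicate spots. The probes sit in constant array flanks that are not printed.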", "values": [
      {"sequence": "AAACATCTGGGGCGGAAACGGAAGCATGGCCGCAGC", "ETS1 binding intensity": 3700},
      {"sequence": "AGAAACGGAAAGAAAGTGACCCCTCCCTTCCTTTCA", "ETS1 binding intensity": 175},
      {"sequence": "CTGCACGTTGCAAGGATATCGGATATGACTAACATG", "ETS1 binding intensity": 408},
      {"sequence": "TGACGGGAGGCTTCCCGGAGAAGGAAGTGGGGTGCG", "ETS1 binding intensity": 252},
      {"sequence": "GTTCATTTATGCAGGAAGAGGAAACCTAGCAAGCTC", "ETS1 binding intensity": 359},
      {"sequence": "GACAGGAAACGGGGTCCCTGGCGCTAGGTTCCGGCC", "ETS1 binding intensity": 6680},
      {"sequence": "AAAACACACATCCCTAAAGAAACAGGAAGCCACCAT", "ETS1 binding intensity": 1110},
      {"sequence": "ACACATCCCAGCTATGCTCCCCTCTAGCGGATGCTG", "ETS1 binding intensity": 264},
      {"sequence": "TTTGAAATCACAGCTTCCTTCCTGTTGCAACTTAGC", "ETS1 binding intensity": 4360},
      {"sequence": "TTAGGCACTTCCTTTCCCCCTTCCTTGCACCTGTTC", "ETS1 binding intensity": 15100},
      {"sequence": "GCGTTGAGTCGTTTCCTGCCGGATGACCCGACCCTT", "ETS1 binding intensity": 14500},
      {"sequence": "AGGCAGGAAACCCGGCCGTCCTCAAGCAGGAAAGCT", "ETS1 binding intensity": 1160},
      {"sequence": "AAAGGCACTTCCTATTCAGTAATGGGAAGTGGGCAA", "ETS1 binding intensity": 10800},
      {"sequence": "GCAAAACTACAGGGGATGTTTCCTGTGCGCCTCCAG", "ETS1 binding intensity": 3120},
      {"sequence": "GCCTTCAATTTCCGTAGGGAACCTTCCTCCCAGTGA", "ETS1 binding intensity": 6860},
      {"sequence": "CAGGCCGGAAGTACGTGAGAGGAGACTTCCGGCCAC", "ETS1 binding intensity": 31200},
      {"sequence": "GATGGTTCCGCTCTACGCGGGGTGACGGGAAACCGC", "ETS1 binding intensity": 3230},
      {"sequence": "CATTCAGGAAATGTGGTACACAAAGCAGGATGTATA", "ETS1 binding intensity": 1900},
      {"sequence": "AACCATGAGCAGGAAGGCTATTTCCTCCTTAACTAT", "ETS1 binding intensity": 1070},
      {"sequence": "AACGGACGGAAAGGCTTCTTTCACCGGAAGCACAGA", "ETS1 binding intensity": 2270},
      {"sequence": "TCCAGAGGAAACTGCCAGGACCACAGTTCCTGTTGC", "ETS1 binding intensity": 373},
      {"sequence": "CCCCGGTCCGCTTCCTGTGGCTTCCGCTCTGGCCAT", "ETS1 binding intensity": 21700},
      {"sequence": "ACAGCTTCCGGGGGCGAAGGACTGGGTTTCCTGCCC", "ETS1 binding intensity": 35700},
      {"sequence": "ACCAGGAGGAAGTCGGCTCCGGGGCGGAACCTGGAC", "ETS1 binding intensity": 1740},
      {"sequence": "AGGAGTTTCCTGTCCCTCTGGGTGGGGGAAGTAGGC", "ETS1 binding intensity": 24500},
      {"sequence": "ACCCCCTGGCGGATGCTGTGTGTTTCCTGTGCTTAG", "ETS1 binding intensity": 3420},
      {"sequence": "CAGGAGGAAGCGGCGAGTCAGCGCGGCGGAAAGGGC", "ETS1 binding intensity": 240},
      {"sequence": "AGGACAGGAAACTGGAGATGATTAGACATCCTTTAT", "ETS1 binding intensity": 4600},
      {"sequence": "GTGACAGGATGGTCTGGCGACCACATTTCCCGGCAG", "ETS1 binding intensity": 328},
      {"sequence": "TCCTGGTCTCTCTTCCTGCAGGATGTACCCTGCCCA", "ETS1 binding intensity": 2160},
      {"sequence": "GAGAGAATACCGGAAGCAAGCAGGAAATAGCCACTA", "ETS1 binding intensity": 26100},
      {"sequence": "CTTTTCCCAGGAAGCCATTTCATTTCCTTTCATTAG", "ETS1 binding intensity": 1800},
      {"sequence": "TACAAGCAGGATAATTGGACAGGGTTTCCGGCAACG", "ETS1 binding intensity": 673},
      {"sequence": "GCCCCCCAGCTTCCTTCCTGGATCTGTCTATTGTTG", "ETS1 binding intensity": 4060},
      {"sequence": "GCGGCCTACGCCGGAAGAACGGAAATAAGAGCTTCG", "ETS1 binding intensity": 6560},
      {"sequence": "CGGACGGAAGCTCCCGCCCTGCGGTGCCGGATGGCC", "ETS1 binding intensity": 892},
      {"sequence": "ACACATCCTGAATTCTGAAAGAATGTGCTTCCTGAA", "ETS1 binding intensity": 15600},
      {"sequence": "GTCACTTCCGGCCCCGAGTTCGAGCCGCTTCCGGGT", "ETS1 binding intensity": 115000},
      {"sequence": "TCACAGTTCCGCTTGGCTAGAGGGACTTCCTGAAAC", "ETS1 binding intensity": 6230},
      {"sequence": "CAGCGACCCGGAAACACTCGGCCCGGAAATGATGTC", "ETS1 binding intensity": 4940},
      {"sequence": "ACCGCCCGGAAGTGACGCGCCCGCGCATCCGGCCAC", "ETS1 binding intensity": 19800},
      {"sequence": "AAGTCAGGAAACAACAGATGCTGGAGAGGATGTGGA", "ETS1 binding intensity": 368},
      {"sequence": "AGTGGGGAGGAAGAAAAAGCTGGCTTCCTGCAAGCC", "ETS1 binding intensity": 513},
      {"sequence": "AACGCCTTGGAACAGGAAGGAAGCAATGACTCAAAG", "ETS1 binding intensity": 693},
      {"sequence": "GAGGCCAGGAAGCGGCGGGAGCTACTTCCCCTGATC", "ETS1 binding intensity": 1860},
      {"sequence": "AGCCTCGACTTCCTGGGCCAAGCCATCCTGCCGCCT", "ETS1 binding intensity": 9090},
      {"sequence": "GCCTGCCACATCCTGGCCATCTACTTCCTCTTAAAC", "ETS1 binding intensity": 14700},
      {"sequence": "TCACTTCCTGAACACGCTTTGGCTGGCTTTCCTGTG", "ETS1 binding intensity": 26100},
      {"sequence": "CAGGAGGAAGTGCTGCCTCATGCAGGACGGAAGGGC", "ETS1 binding intensity": 1090},
      {"sequence": "TGCGGTGGCAGCTTCCTTGCGGAAGTGGTGACCGTG", "ETS1 binding intensity": 1710},
      {"sequence": "AAACGTCACTTCCTGCGACACGCAGGAAACAAAGGC", "ETS1 binding intensity": 28100},
      {"sequence": "GGGCATCCGCAGCGAGTCCCTCCCCGGTTTCCGGGC", "ETS1 binding intensity": 7180},
      {"sequence": "CTAACGCAACTCAGGAAACTTCCTTTCATTAATTTT", "ETS1 binding intensity": 639},
      {"sequence": "CACATTTGCAGAGCTTCCTTCCGGGACTTCGTGGCA", "ETS1 binding intensity": 2240},
      {"sequence": "AGTAGGTTGCATCCTGTTTACACATCCTGTTAGGAC", "ETS1 binding intensity": 19800},
      {"sequence": "TTAAGCAGTTTCCTGGTCTGGCAGGATTTGTTATCT", "ETS1 binding intensity": 4500},
      {"sequence": "AACGGGAAGCGAGGCCTCATTGGCCAGTATCCGCCT", "ETS1 binding intensity": 184},
      {"sequence": "CGGCGCAGAGGCAGGAAGAGGAAGCGGCACCCGCTT", "ETS1 binding intensity": 890},
      {"sequence": "ACAAAGGAAGTACTCAGTTACAATTACCTTCCTGTT", "ETS1 binding intensity": 1080},
      {"sequence": "TCCAGGCTGATGCTTCCTCAGGAAGGACATGGGGGC", "ETS1 binding intensity": 297},
      {"sequence": "GCTGTGCGCTCCCGGAAGCATTCCGGGCGGAGGGAA", "ETS1 binding intensity": 1860},
      {"sequence": "GCAGGAGACGGAAGATGCATGGGTTTCCTGGCGCGC", "ETS1 binding intensity": 424},
      {"sequence": "TGACGCGCCCACCGGAAACGGAAGTAGTCGACTCGA", "ETS1 binding intensity": 21500},
      {"sequence": "TTTGCAGGAAGTTAAGCTTCACGATGGGAAATGCCT", "ETS1 binding intensity": 2510},
      {"sequence": "TGGCACTTGACATCCTGTTGACATCCGTCTCCCCTC", "ETS1 binding intensity": 19700},
      {"sequence": "GCCCCAGGAAGGGCCCACAGGCTGCAGGAAGAGCAC", "ETS1 binding intensity": 202},
      {"sequence": "TCTAGAAGGAAATGGGTTAGCTTATTTCCTACCTCT", "ETS1 binding intensity": 465},
      {"sequence": "GACGCGAAACTTTCCGGGCGCTTCCTCCCGCGGTCC", "ETS1 binding intensity": 1330},
      {"sequence": "GCACAGGAAGCCGGGCCAGCGGCCTCCGGAAGCCTC", "ETS1 binding intensity": 3490},
      {"sequence": "GCCGCTTCCTGTCATTAAGCATCTCAGAGGAAGCAG", "ETS1 binding intensity": 51200},
      {"sequence": "CACCGGAACGATTCTAGCTGCTCTTGCCGGAAGTGT", "ETS1 binding intensity": 897},
      {"sequence": "AGAGGCATGGGGGATGTGCTCTATCCTGTTTTGTCA", "ETS1 binding intensity": 340},
      {"sequence": "CCACTTCCCCGGGTGCCCAGGAGTGAACATCCGGGT", "ETS1 binding intensity": 6160},
      {"sequence": "GGCCGGAAGCTACTCAGGCAGCCTCTGTTTCCTCAC", "ETS1 binding intensity": 4530},
      {"sequence": "CCTGCCACTTCCTGTGGGGTGCATATCCTGTTTCAG", "ETS1 binding intensity": 33800},
      {"sequence": "TATACATGGTTCCGGCTTGACGCGGATACCTAGTGA", "ETS1 binding intensity": 1870},
      {"sequence": "TTACCTTCCTGCTCCCTGAGAGCAACAGGAAACACT", "ETS1 binding intensity": 7920},
      {"sequence": "CACAGAGAAGGAAACGAGGAGGAGGATGTCTCACCG", "ETS1 binding intensity": 233},
      {"sequence": "TAGGCAGCCCCACATCCTGCTTCCTCCCTGTGCTGA", "ETS1 binding intensity": 10300},
      {"sequence": "ACAGGAGCTACTTCCTGAACAGGATGAAGTATTTTG", "ETS1 binding intensity": 9010}
    ]}
  ]
}
